# Laboratory results from the supplement of paper PMC8728848.
# Some of the results follow.
# B1: rCnSL-proB (Clitocybe nebularis) (protein)
# chain: PTFSPIFALLAFLPFGTLASLLPQTQLVFRINPNLPGPNDVFVGYRGTNNVVGAIYERDGIKDTPMNNGADAELGPGSYITDDLFTAQIFASGSAGNNPGTTATVCKIYADGVQWRGAPKGYLPVLYFGNGQAAEQTRQTYLQGLDIPGTAIRFANLAKTPNQGPTAPRQMVVPSGGLQTLLKASCFPANHAALPQVLSYFNVRAALPPGWNIRTGPEFPNWTN
# Tests used:
# Assay in all cases: glycan array binding signal (z-score within array); higher = stronger binding
# Settings in all cases: glycan notation: IUPAC condensed, linker removed
# [1] = molecular target: Gal(b1-3)GlcNAc(b1-2)Man(a1-3)[Gal(b1-3)GlcNAc(b1-2)Man(a1-6)]Man(b1-4)GlcNAc(b1-4)[Fuc(a1-6)]GlcNAc
# Method in brief: (§1)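 Arrays were curated from the Consortium for Functional Glycomics database, 3228 in total, and kept only where the protein sequence was available. Binding is expressed as a within-array Z-score. This score was averaged across arrays of the same protein sequence at different concentrations or buffers and across linkers, and negative values can be read as non-binding.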
# [2] = molecular target: Gal(b1-3)GlcNAc(b1-2)Man(a1-3)[GlcNAc(b1-4)][Gal(b1-3)GlcNAc(b1-2)Man(a1-6)]Man(b1-4)GlcNAc(b1-4)GlcNAc
# Method in brief: as §1
# [3] = molecular target: Gal(b1-3)GlcNAc(b1-2)[Gal(b1-3)GlcNAc(b1-6)]Man(a1-6)[Gal(b1-3)GlcNAc(b1-2)Man(a1-3)]Man(b1-4)GlcNAc(b1-4)GlcNAc
# Method in brief: as §1
# [4] = molecular target: Gal(b1-3)GlcNAc(b1-3)Gal(b1-3)GlcNAc
# Method in brief: as §1
# [5] = molecular target: Gal(b1-3)GlcNAc(b1-3)Gal(b1-4)Glc
# Method in brief: as §1
# [6] = molecular target: Gal(b1-3)GlcNAc(b1-3)Gal(b1-4)GlcNAc
# Method in brief: as §1
# [7] = molecular target: Gal(b1-3)GlcNAc(b1-3)Gal(b1-4)GlcNAc(b1-2)Man(a1-3)[Gal(b1-3)GlcNAc(b1-3)Gal(b1-4)GlcNAc(b1-2)Man(a1-6)]Man(b1-4)GlcNAc(b1-4)GlcNAc
# Method in brief: as §1
# [8] = molecular target: Gal(b1-3)GlcNAc(b1-3)Gal(b1-4)GlcNAc(b1-2)[Gal(b1-3)GlcNAc(b1-3)Gal(b1-4)GlcNAc(b1-6)]Man(a1-6)[Gal(b1-3)GlcNAc(b1-3)Gal(b1-4)GlcNAc(b1-2)Man(a1-3)]Man(b1-4)GlcNAc(b1-4)[Fuc(a1-6)]GlcNAc
# Method in brief: as §1
# [9] = molecular target: Gal(b1-3)GlcNAc(b1-3)Gal(b1-4)GlcNAc(b1-3)Gal(b1-4)GlcNAc(b1-2)[Gal(b1-3)GlcNAc(b1-3)Gal(b1-4)GlcNAc(b1-3)Gal(b1-4)GlcNAc(b1-6)]Man(a1-6)[Gal(b1-3)GlcNAc(b1-3)Gal(b1-4)GlcNAc(b1-3)Gal(b1-4)GlcNAc(b1-2)Man(a1-3)]Man(b1-4)GlcNAc(b1-4)[Fuc(a1-6)]GlcNAc
# Method in brief: as §1
# [10] = molecular target: Gal(b1-3)GlcNAc(b1-3)Gal(b1-4)GlcNAc(b1-6)[Gal(b1-3)GlcNAc(b1-3)]Gal(b1-4)Glc
# Method in brief: as §1
# [11] = molecular target: Gal(b1-3)GlcNAc(b1-3)Gal(b1-4)[Fuc(a1-3)]GlcNAc
# Method in brief: as §1
# [12] = molecular target: Gal(b1-3)GlcNAc(b1-3)Gal(b1-4)[Fuc(a1-3)]GlcNAc(b1-6)[Gal(b1-3)GlcNAc(b1-3)]Gal(b1-4)Glc
# Method in brief: as §1
# [13] = molecular target: Gal(b1-3)GlcNAc(b1-3)GalNAc
# Method in brief: as §1
# [14] = molecular target: Gal(b1-3)GlcNAc(b1-6)Gal(b1-4)GlcNAc
# Method in brief: as §1
# [15] = molecular target: Gal(b1-3)GlcNAc(b1-6)GalNAc
# Method in brief: as §1
# [16] = molecular target: Gal(b1-3)GlcNAc(b1-6)[Gal(b1-3)]GalNAc
# Method in brief: as §1
# Gal(b1-3)GlcNAc6S = molecular target: Gal(b1-3)GlcNAc6S
# Method in brief: as §1
# [17] = molecular target: Gal(b1-3)[Fuc(a1-4)]GlcNAc
# Method in brief: as §1
# [18] = molecular target: Gal(b1-3)[Fuc(a1-4)]GlcNAc(b1-2)Man
# Method in brief: as §1
# [19] = molecular target: Gal(b1-3)[Fuc(a1-4)]GlcNAc(b1-2)Man(a1-3)[Gal(b1-3)[Fuc(a1-4)]GlcNAc(b1-2)Man(a1-6)]Man(b1-4)GlcNAc(b1-4)[Fuc(a1-6)]GlcNAc
# Method in brief: as §1
# [20] = molecular target: Gal(b1-3)[Fuc(a1-4)]GlcNAc(b1-3)Gal(b1-3)[Fuc(a1-4)]GlcNAc
# Method in brief: as §1
# [21] = molecular target: Gal(b1-3)[Fuc(a1-4)]GlcNAc(b1-3)Gal(b1-4)[Fuc(a1-3)]GlcNAc
# Method in brief: as §1
# [22] = molecular target: Gal(b1-3)[Fuc(a1-4)]GlcNAc(b1-6)GalNAc
# Method in brief: as §1
# [23] = molecular target: Gal(b1-3)[GlcNAc(b1-6)]GalNAc
# Method in brief: as §1
# [24] = molecular target: Gal(b1-3)[Neu5Ac(a2-6)]GalNAc
# Method in brief: as §1
# [25] = molecular target: Gal(b1-3)[Neu5Ac(a2-6)]GlcNAc(b1-4)Gal(b1-4)Glc
# Method in brief: as §1
# [26] = molecular target: Gal(b1-3)[Neu5Ac(b2-6)]GalNAc
# Method in brief: as §1
# Gal(b1-4)Gal = molecular target: Gal(b1-4)Gal
# Method in brief: as §1
# [27] = molecular target: Gal(b1-4)GalNAc(a1-3)[Fuc(a1-2)]Gal(b1-4)GlcNAc
# Method in brief: as §1
# [28] = molecular target: Gal(b1-4)GalNAc(b1-3)[Fuc(a1-2)]Gal(b1-4)GlcNAc
# Method in brief: as §1
# Gal(b1-4)Glc = molecular target: Gal(b1-4)Glc
# Method in brief: as §1
# Gal(b1-4)Glc6S = molecular target: Gal(b1-4)Glc6S
# Method in brief: as §1
# Gal(b1-4)GlcNAc = molecular target: Gal(b1-4)GlcNAc
# Method in brief: as §1
# [29] = molecular target: Gal(b1-4)GlcNAc(a1-6)Gal(b1-4)GlcNAc
# Method in brief: as §1
# Gal(b1-4)GlcNAc(b1-2)Man = molecular target: Gal(b1-4)GlcNAc(b1-2)Man
# Method in brief: as §1
# [30] = molecular target: Gal(b1-4)GlcNAc(b1-2)Man(a1-3)Man(b1-4)GlcNAc(b1-4)GlcNAc
# Method in brief: as §1
# [31] = molecular target: Gal(b1-4)GlcNAc(b1-2)Man(a1-3)[Gal(b1-4)GlcNAc(b1-2)Man(a1-6)]Man(b1-4)GlcNAc(b1-4)GlcNAc
# Method in brief: as §1
# [32] = molecular target: Gal(b1-4)GlcNAc(b1-2)Man(a1-3)[Gal(b1-4)GlcNAc(b1-2)Man(a1-6)]Man(b1-4)GlcNAc(b1-4)[Fuc(a1-6)]GlcNAc
# Method in brief: as §1
# [33] = molecular target: Gal(b1-4)GlcNAc(b1-2)Man(a1-3)[Gal(b1-4)GlcNAc(b1-2)Man(a1-6)][Gal(b1-4)GlcNAc(b1-4)]Man(b1-4)GlcNAc(b1-4)[Fuc(a1-6)]GlcNAc
# Method in brief: as §1
# [34] = molecular target: Gal(b1-4)GlcNAc(b1-2)Man(a1-3)[Gal(b1-4)GlcNAc(b1-2)Man(a1-6)][GlcNAc(b1-4)]Man(b1-4)GlcNAc(b1-4)[Fuc(a1-6)]GlcNAc
# Method in brief: as §1
# [35] = molecular target: Gal(b1-4)GlcNAc(b1-2)Man(a1-3)[GlcNAc(b1-2)Man(a1-6)]Man(b1-4)GlcNAc(b1-4)GlcNAc
# Method in brief: as §1
# [36] = molecular target: Gal(b1-4)GlcNAc(b1-2)Man(a1-3)[GlcNAc(b1-4)][Gal(b1-4)GlcNAc(b1-2)Man(a1-6)]Man(b1-4)GlcNAc(b1-4)GlcNAc
# Method in brief: as §1
# [37] = molecular target: Gal(b1-4)GlcNAc(b1-2)Man(a1-3)[Man(a1-6)]Man(b1-4)GlcNAc(b1-4)GlcNAc
# Method in brief: as §1
# [38] = molecular target: Gal(b1-4)GlcNAc(b1-2)Man(a1-6)Man(b1-4)GlcNAc(b1-4)GlcNAc
# Method in brief: as §1
# [39] = molecular target: Gal(b1-4)GlcNAc(b1-2)Man(a1-6)[GlcNAc(b1-2)Man(a1-3)]Man(b1-4)GlcNAc(b1-4)GlcNAc
# Method in brief: as §1
binder,measurement,setting,value
B1,glycan array binding signal (z-score),[1],-0.42
same,glycan array binding signal (z-score),[2],0.778
same,glycan array binding signal (z-score),[3],2
same,glycan array binding signal (z-score),[4],-0.073
same,glycan array binding signal (z-score),[5],-0.509
same,glycan array binding signal (z-score),[6],0.517
same,glycan array binding signal (z-score),[7],3.58
same,glycan array binding signal (z-score),[8],0.414
same,glycan array binding signal (z-score),[9],0.308
same,glycan array binding signal (z-score),[10],0.635
same,glycan array binding signal (z-score),[11],-0.098
same,glycan array binding signal (z-score),[12],1.43
same,glycan array binding signal (z-score),[13],-1.39
same,glycan array binding signal (z-score),[14],-0.111
same,glycan array binding signal (z-score),[15],-0.04
same,glycan array binding signal (z-score),[16],-0.511
same,glycan array binding signal (z-score),Gal(b1-3)GlcNAc6S,-0.546
same,glycan array binding signal (z-score),[17],-0.528
same,glycan array binding signal (z-score),[18],0.757
same,glycan array binding signal (z-score),[19],-0.545
same,glycan array binding signal (z-score),[20],0.066
same,glycan array binding signal (z-score),[21],-0.035
same,glycan array binding signal (z-score),[22],0.267
same,glycan array binding signal (z-score),[23],-0.543
same,glycan array binding signal (z-score),[24],0.089
same,glycan array binding signal (z-score),[25],0.045
same,glycan array binding signal (z-score),[26],1.77
same,glycan array binding signal (z-score),Gal(b1-4)Gal,0.12
same,glycan array binding signal (z-score),[27],-0.622
same,glycan array binding signal (z-score),[28],0.402
same,glycan array binding signal (z-score),Gal(b1-4)Glc,-0.32
same,glycan array binding signal (z-score),Gal(b1-4)Glc6S,-0.06
same,glycan array binding signal (z-score),Gal(b1-4)GlcNAc,-0.135
same,glycan array binding signal (z-score),[29],1.09
same,glycan array binding signal (z-score),Gal(b1-4)GlcNAc(b1-2)Man,-0.07
same,glycan array binding signal (z-score),[30],-0.25
same,glycan array binding signal (z-score),[31],-0.56
same,glycan array binding signal (z-score),[32],1.3
same,glycan array binding signal (z-score),[33],-0.007
same,glycan array binding signal (z-score),[34],0.414
same,glycan array binding signal (z-score),[35],-0.788
same,glycan array binding signal (z-score),[36],0.593
same,glycan array binding signal (z-score),[37],-0.452
same,glycan array binding signal (z-score),[38],-0.138
same,glycan array binding signal (z-score),[39],-0.377
